Data on 62 compounds can be found in PubChem BioAssay AID1963576 (National Center for Advancing Translational Sciences (NCATS), 2024).

The campaign covered roughly 46,000 compounds. About 60 (0.1%) were called active. Roughly 3% stayed inconclusive and do not appear here. Calls come from the whole dose curve; as a rule, active = well fitted inhibition curve with a large enough effect; inconclusive = small, poorly fitted or top-dose-only effect; inactive = no such curve, though single readings can be large or run the other way. This is one part of the list.

This assay in a line: Primary qHTS assay for Inhibitors of ovarian cancer metastasis using an organotypic tumor microenvironment (TME) model.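 For activity change, negative = inhibition: plate controls were DMSO wells for no effect and tomatine positive control wells for full effect.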 Note: nearly all actives have a fitted effect of over 65% in size. The conditions noted are these: SKOV3ip1-GFP adhesion/invasion on 3D omental model, fluorescence; series mostly up to 45.8 µM; activity change, negative = inhibition: at the top concentration. A digest of the protocol: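 A 3D layer of primary human omental fibroblasts, mesothelial cells, fibronectin and collagen I, grown 48 hr, received SKOV3ip1-GFP cells in serum-free medium plus compounds at 0.36-46 umol/L. After 2 hr RT and 16 hr 37 C, fixed adherent GFP cells were counted; normalized to DMSO and tomatine.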
On to `Fc1ccccc1N1CCN(c2ncc3c(n2)CCN(Cc2ccc(Br)s2)C3)CC1`, for which the “activity change, negative = inhibition” value was inactive: 2.22%.

Turning to `COc1ccccc1CCNC(=O)C(=O)NCC(c1cccs1)S(=O)(=O)c1ccc(F)cc1` (configuration not stated), the “activity change, negative = inhibition” value was inactive: 1.04%.

Turning to `CC(Oc1ccccc1)C(=O)OCc1cc(=O)n2nc(C(C)C)sc2n1` (configuration not stated), the “activity change, negative = inhibition” value is inactive: 4.1%.

As to `Cc1ccc2nc(-c3cccc(Cl)c3)c(Nc3ccc4c(c3)OCO4)n2c1`, the “activity change, negative = inhibition” value is inactive: -2.75%.

With `Cc1ccc(C)c(NC(=O)N2CCc3cc(S(=O)(=O)N4CCC(C)CC4)ccc32)c1`, the “activity change, negative = inhibition” value is inactive: -7.96%.

For the compound `Cc1cc(=O)[nH]c2nnc(SCC(=O)Nc3ccc(F)cc3F)n12`, the compound was called inactive.

As for `COc1ccc(Cl)cc1NC(=O)C1CCN(S(=O)(=O)c2ccc3c(c2)CCCN3C(=O)C2CCC2)CC1`, the “activity change, negative = inhibition” value was inactive: 1.66%.

As to `COc1ccccc1NC(=O)Cn1cc(C(=O)c2ccncc2)c(=O)c2cc(C)ccc21`, the “activity change, negative = inhibition” value is inactive: -28.7%.

Consider `COc1ccccc1CNC(=O)c1ccc2c(c1)nnn2C1CCCC1`, for which the “activity change, negative = inhibition” value is inactive: 4.92%.

`Cc1ccc(NC(=O)N2CCN3CCCCC3C2)cc1F` (configuration not stated): the “activity change, negative = inhibition” value is inactive: 1.24%.

Turning to `Cc1ccsc1CN(C(=O)c1ccc(Br)cc1)C1CCS(=O)(=O)C1` (configuration not stated), the “activity change, negative = inhibition” value was inactive: 7.76%.

On to `O=C(Nc1cccc(-c2nc3ccccc3[nH]2)c1)c1ccccc1F`, for which the compound was called inactive.

As for `CCc1ccc(S(=O)(=O)c2nnn3c2nc(NCc2cccc(OC)c2)c2cc(Cl)ccc23)cc1`, the “activity change, negative = inhibition” value was inactive: 1.16%.

In the case of `O=C(Nc1ccc(Cl)cc1)c1cc2c(Cl)nc3ccccc3c2s1`, the “activity change, negative = inhibition” value was inactive: -6.98%.

`CN(C)c1ccc(-c2noc(C3CC(=O)N(c4ccc5c(c4)OCCO5)C3)n2)cc1` (configuration not stated): the “activity change, negative = inhibition” value is inactive: -18.5%.

As to `CCCC(CCC)C(=O)Nc1nnc2n1CCS2`, the “activity change, negative = inhibition” value was inactive: -3.23%.

For the compound `CCc1nnc2c3ccccc3nc(Nc3ccc(F)c(Cl)c3)n12`, the “activity change, negative = inhibition” value is inactive: -2.56%.

As to `O=C(Nc1ccc(S(=O)(=O)N2CCCCC2c2cccnc2)cc1)c1ccc(F)cc1` (configuration not stated), the “activity change, negative = inhibition” value is inactive: -22.4%.

For the compound `COc1ccc(NC(=O)c2cc(S(=O)(=O)N3CCCCC3)cn2C)cc1Cl`, the outcome was inactive.

Regarding `CCN(Cc1ccccc1)C(=O)CN1C(=O)CSc2ccc(S(=O)(=O)N(CC)CC)cc21`, the “activity change, negative = inhibition” value is inactive: 11.6%.

For `CCc1ccc(CNC(=O)c2nn(-c3ccc(OC)c(Cl)c3)c(=O)c3c2c2ccccc2n3C)cc1`, the “activity change, negative = inhibition” value was inactive: 6.31%.

Consider `COc1ccc(-c2c3c(nc4sc(C(=O)Nc5ccccc5F)c(N)c24)CC(C)(C)CC3=O)cc1`, for which the “activity change, negative = inhibition” value is inactive: -10.7%.

Regarding `COC(=O)CSc1nc2sc3c(c2c(=O)n1Cc1ccccc1)CCC(C(C)(C)C)C3` (configuration not stated), the “activity change, negative = inhibition” value was inactive: 4.08%.

On to `CCOc1ccccc1NC(=O)CN1C(=O)COc2ccc(S(=O)(=O)Nc3ccccc3)cc21`, for which the outcome was inactive.

On to `COc1ccc(-c2nn(CC(=O)NCc3ccccc3)c3c2cnc2ccc(F)cc23)cc1`, for which the “activity change, negative = inhibition” value is inactive: -1.32%.

For the compound `CCCCNC(=O)Cn1ncc2c(C)n(Cc3cccc(Cl)c3)c(C)c2c1=O`, the outcome was inactive.

As to `O=C(NCc1cccs1)c1nn(-c2ccccc2F)nc1CO`, the compound was classed as inactive.

Regarding `CCCCN(C)CCCNC(=O)CN1C(=O)CSc2ccc(S(=O)(=O)N3CCOCC3)cc21`, the “activity change, negative = inhibition” value was inactive: 7.51%.

For the compound `COc1cc2oc(=O)c(CC(=O)NCCc3ccccc3F)c(C)c2cc1OC`, the “activity change, negative = inhibition” value is inactive: 8.71%.

For `Cc1ccc(NC(=O)C2CCCN(S(=O)(=O)c3ccc4[nH]c(=O)ccc4c3)C2)cc1C` (configuration not stated), the “activity change, negative = inhibition” value is inactive: 11%.

With `O=C(Cn1c(=O)nc(-c2ccccc2F)c2cc(Cl)ccc21)Nc1ccccc1C(F)(F)F`, the “activity change, negative = inhibition” value was inactive: -4.65%.

For `Cc1ccc(-c2nc3nc(C)cc(N4CCN(c5cccc(C)c5)C(C)C4)n3n2)cc1` (configuration not stated), the “activity change, negative = inhibition” value was inactive: 91.6%.

In the case of `CCn1cc(C(=O)N2CCN(c3ccccc3)CC2)c(=O)c2cc(S(=O)(=O)N3CCCC3)ccc21`, the “activity change, negative = inhibition” value was inactive: -4.51%.

Take `CCn1c(C(=O)NCc2ccc(OC)cc2)cc2sc(Cl)cc21`: the “activity change, negative = inhibition” value was inactive: -13.6%.

As for `CCNC(=O)c1c(NC(=O)Cc2coc3cc(C)ccc23)sc2c1CCCC2`, the “activity change, negative = inhibition” value was inactive: -24.2%.

Consider `CCOc1ccc(S(=O)(=O)Nc2cccc(C)c2)c2cccnc12`, for which the “activity change, negative = inhibition” value was inactive: 9.34%.

For `Cc1ccc(Nc2ncnc3onc(C)c23)cc1Cl`, the “activity change, negative = inhibition” value was inactive: -0.716%.

Turning to `CCc1ccccc1NC(=O)Cc1cn(C)c2ccccc12`, the “activity change, negative = inhibition” value was inactive: -4.08%.

Take `O=C(Nc1c(O)c2ccccc2oc1=O)c1cccc(F)c1`: the “activity change, negative = inhibition” value is inactive: -1.35%.

Take `CCOC(=O)c1[nH]c(C)c(CCC(=O)NCc2cccc(C)c2)c1C`: the “activity change, negative = inhibition” value is inactive: 4.27%.

For `CCOC(=O)c1c(C)[nH]c(C)c1S(=O)(=O)N1CCCC(C(=O)Nc2ccc(C)c(N(C)C)c2)C1` (configuration not stated), the call was inactive.

For the compound `Cc1ccc(OCC(=O)N(Cc2ccco2)c2ccccn2)cc1`, the “activity change, negative = inhibition” value was inactive: 8.74%.

Turning to `CCCCOC(=O)c1ccc(NC(=O)Cc2coc3c(C)c(C)ccc23)cc1`, the “activity change, negative = inhibition” value is inactive: -15.6%.

Consider `COC(=O)c1ccccc1NC(=O)C1(c2cccs2)CCOCC1`, for which the result was inactive.

Take `Cc1c(Cl)cccc1NC(=O)CSc1ncc(S(=O)(=O)c2ccc(C(C)C)cc2)c(=O)[nH]1`: the “activity change, negative = inhibition” value was inactive: 1.02%.

Consider `Cc1cc(C)cc(NC(=O)c2ccc3c(O)c(S(=O)(=O)c4ccccc4)c(=O)[nH]c3c2)c1`, for which the “activity change, negative = inhibition” value was inactive: -7.63%.

Regarding `Cc1ccc(C(=O)N2CCN(c3ccc(F)cc3)CC2)cc1NC(=O)c1nsc2ccccc12`, the “activity change, negative = inhibition” value is inactive: -17%.

`Cc1ccc(-c2nnc(Nc3ccc(Cl)c(Cl)c3)c3ccccc23)cc1S(=O)(=O)N(C)C`: the “activity change, negative = inhibition” value is inactive: -2.14%.

Turning to `COc1ccc(CCNS(=O)(=O)c2ccc(F)c(C(=O)Nc3ccc(Cl)cc3)c2)cc1OC`, the “activity change, negative = inhibition” value was inactive: -9.15%.

Turning to `Cc1cccc(CNC(=O)CN2C(=O)C3CCCCN3c3ccc(C(=O)N4CCCC4)cc32)c1` (configuration not stated), the “activity change, negative = inhibition” value was inactive: 1.19%.

As to `Oc1c(C(c2ccccc2Cl)N2CCOCC2)sc2nc(-c3ccco3)nn12` (configuration not stated), the “activity change, negative = inhibition” value is inactive: -4.55%.

Consider `CCC(=O)N1CCc2cc(CNC(=O)Nc3cc(C)ccc3C)ccc21`, for which the “activity change, negative = inhibition” value was inactive: -1.64%.

Turning to `CC(=O)N1CCN(c2nc3c(C)ccc(Cl)c3s2)CC1`, the “activity change, negative = inhibition” value was inactive: 0.637%.

As for `CC(=O)c1cccc(NC(=O)Cn2c(=O)oc3cc(S(=O)(=O)NC4CCCC4)ccc32)c1`, the “activity change, negative = inhibition” value was inactive: -2.65%.

For `O=C(CSCc1ccccc1Cl)NCc1ccc(Cl)c(Cl)c1`, the outcome was inactive.

On to `Cc1ccc(C)c(Cn2c3ccccc3c3cnn(CC(=O)NCC(C)c4ccccc4)c(=O)c32)c1` (configuration not stated), for which the compound was classed as inactive.

For the compound `Cc1nc(-n2nc(C)c(Cc3ccc(Cl)cc3)c2C)sc1C(=O)N1CCCCC1C` (configuration not stated), the “activity change, negative = inhibition” value was inactive: 6.26%.

`COc1cccc(NC(=O)CSc2nccn2Cc2ccc3c(c2)OCO3)c1`: the “activity change, negative = inhibition” value was inactive: 5.06%.

For the compound `COc1cccc(CNC(=O)CN2C(=O)N(c3c(C)cccc3C)S(=O)(=O)c3ccccc32)c1OC`, the call was inactive.

As for `COc1ccc(C2c3c(oc4ccc(Cl)cc4c3=O)C(=O)N2CCCN(C)C)cc1OC` (configuration not stated), the “activity change, negative = inhibition” value is inactive: 2.76%.

For the compound `COc1ccc(OC)c(NC(=O)C(C)n2nc(C)c3c(C)n(-c4ccccc4)nc3c2=O)c1` (configuration not stated), the “activity change, negative = inhibition” value is inactive: 6.1%.

On to `Cc1ccc(NC(=O)CN2C(=O)CC(c3ccc(F)cc3)=Nc3ccccc32)cc1F`, for which the “activity change, negative = inhibition” value was inactive: -16.2%.
